# Assay results from PubChem BioAssay AID330 (DTP/NCI, 2004).
# Toxic doses and inconclusive results are not listed. Not every entry of the source has a single result; some have several. The other results are left out here. The source may hold further records. Results that share an entry are repeats across runs, samples, wells, individuals or studies. Counts like (3×) give the number of equal values in this list.
# System: P388 leukemia ip, CD2F1 mice, survival T/C
# Test: NCI In Vivo Anticancer Drug Screen. Data for tumor model P388 Leukemia (intraperitoneal) in CD2F1 (CDF1) mice
# Details: endpoint: median survival time, higher = longer survival
# [1] = dose: 0.12 mg/kg/injection, schedule: Q01DX009 (ip), vehicle: water
# [2] = dose: 0.5 mg/kg/injection, schedule: Q01DX009 (ip), vehicle: water
# [3] = dose: 50.0 mg/kg/injection, schedule: Q01DX005 (ip), vehicle: Klucel (hydroxypropylcellulose) (HPC)
smiles,measurement,setting,value
O=C1c2ccccc2C(=O)c2c(NCCNCCO)ccc(NCCNCCO)c21,T/C,"dose: 30.0 mg/kg/injection, schedule: Q01DX009 (ip), vehicle: saline",109 % of control and 198 % of control
C[n+]1c(-c2cccc(OCCOCCOc3cccc(-c4c5cc(N)ccc5c5ccc(N)cc5[n+]4C)c3)c2)c2cc(N)ccc2c2ccc(N)cc21,T/C,"dose: 0.78 mg/kg/injection, schedule: Q01DX009 (ip), vehicle: water",114 % of control and 151 % of control
CCN(CC)Cc1cc(N=Nc2cc(OC)c(N=Nc3ccc([N+](=O)[O-])cc3)cc2OC)c2ccccc2c1O,T/C,"dose: 200.0 mg/kg/injection, schedule: Q01DX009 (ip), vehicle: Klucel (hydroxypropylcellulose) (HPC)","98 % of control, 100 % of control, 162 % of control"
CN(CCO)c1ccc([N+](=O)[O-])c2nonc12,T/C,"dose: 200.0 mg/kg/injection, schedule: Q04DX002 (ip), vehicle: saline",100 % of control (2×) and 154 % of control
CN(C)CCNc1ccc(CO)c2sc3ccccc3c(=O)c12,T/C,"dose: 100.0 mg/kg/injection, schedule: Q01DX005 (ip), vehicle: saline with Tween-80",109 % of control and 150 % of control
OC(CCl)CN1CCN(CC(O)CCl)CC1 (centres undefined),T/C,"dose: 50.0 mg/kg/injection, schedule: Q01DX005 (ip), vehicle: water",96 % of control and 179 % of control
CCC1(O)CC2CN(CCc3c([nH]c4ccccc34)C(C(=O)OC)(c3cc4c(cc3OC)N(C)C3C(O)(C(N)=O)C(O)C5(CC)C=CCN6CCC43C65)C2)C1 (centres undefined) (tested in a mixture with another compound),T/C,[1],107 % of control and 158 % of control
same,T/C,"dose: 0.25 mg/kg/injection, schedule: Q01DX009 (ip), vehicle: water",116 % of control and 167 % of control
same,T/C,[2],107 % of control and 172 % of control
C[CH2][Sn]([F])([CH2]C)[CH2]C,T/C,"dose: 3.0 mg/kg/injection, schedule: Q01DX009 (ip), vehicle: saline with Tween-80",107 % of control and 164 % of control
CN1NC(c2ccccc2)=C(C#N)C(=O)CC1c1ccc(Cl)cc1 (centres undefined),T/C,"dose: 30.0 mg/kg/injection, schedule: Q01DX005 (ip), vehicle: saline with Tween-80",97 % of control and 163 % of control
O=CNC(Cc1ccc(O)cc1)C(=O)O (centres undefined),T/C,[3],"102 % of control, 105 % of control, 152 % of control"
CC1CN=C(CCc2ccc(NC(=O)c3ccc(C(=O)Nc4ccc(CCC5=NCC(C)N5)cc4)cc3)cc2)N1 (centres undefined),T/C,[3],114 % of control and 150 % of control (2×)
same,T/C,"dose: 200.0 mg/kg/injection, schedule: Q01DX005 (ip), vehicle: Klucel (hydroxypropylcellulose) (HPC)",97 % of control and 178 % of control
C=C(C)C(=O)N(C)C(C)C(=O)OC1CC(=O)N(C)c2cc(cc(OC)c2Cl)C(OC)C(C)=C/C=C/C(OC)C2(O)CC(OC(=O)N2)C(C)C2OC12C (centres undefined),T/C,"dose: 4.0 micrograms/kg/injection, schedule: Q01DX009 (ip), vehicle: saline",120 % of control and 163 % of control
same,T/C,"dose: 16.0 micrograms/kg/injection, schedule: Q01DX009 (ip), vehicle: saline",120 % of control and 163 % of control
CC(C)Sc1nc(NC(=O)N(CCCl)N=O)cc(=O)[nH]1,T/C,[3],105 % of control and 158 % of control
CCC1=C[C@H]2CN(CCc3c([nH]c4ccccc34)[C@@](C(=O)OC)(c3cc4c(cc3OC)N(C=O)[C@H]3[C@@](O)(C(=O)OC)[C@H](OC(C)=O)[C@]5(CC)C=CCN6CC[C@]43[C@@H]65)C2)C1,T/C,"dose: 1.0 mg/kg/injection, schedule: Q01DX001 (ip), vehicle: water",115 % of control and 159 % of control
CCC1=C[C@H]2CN(CCc3c([nH]c4ccccc34)[C@@](C(=O)OC)(c3cc4c(cc3OC)N(C)[C@H]3[C@@](O)(C(=O)OC)[C@H](OC(C)=O)[C@]5(CC)C=CCN6CC[C@]43[C@@H]65)C2)C1,T/C,"dose: 4.0 mg/kg/injection, schedule: Q01DX009 (ip), vehicle: water",88 % of control and 163 % of control
CC1(C)N=C(N)N=C(N)N1c1cccc(CCC(=O)Nc2ccc(S(=O)(=O)F)cc2)c1,T/C,"dose: 75.0 mg/kg/injection, schedule: Q01DX009 (ip), vehicle: saline with Tween-80",123 % of control and 179 % of control
[C-]#[N+]C1CCCCC1.[C-]#[N+]C1CCCCC1.[C-]#[N+]C1CCCCC1.[C-]#[N+]C1CCCCC1.[C-]#[N+]C1CCCCC1.[C-]#[N+]C1CCCCC1.[Mn],T/C,"dose: 1.5 mg/kg/injection, schedule: Q01DX009 (ip), vehicle: saline with Tween-80",94 % of control and 176 % of control
CCC1=C[C@H]2CN(CCc3c([nH]c4ccccc34)[C@@](C(=O)OC)(c3cc4c(cc3OC)N(C)[C@H]3[C@@](O)(C(=O)NC)[C@H](OC(C)=O)[C@]5(CC)C=CCN6CC[C@]43[C@@H]65)C2)C1,T/C,[1],"123 % of control, 169 % of control, 178 % of control"
same,T/C,[2],100 % of control and 169 % of control
O=NNc1ccc(-c2ccccc2)cn1,T/C,"dose: 3.12 mg/kg/injection, schedule: Q01DX009 (ip), vehicle: saline",119 % of control and 161 % of control
